In US20240374746A1, “SIRP-ALPHA ANTIBODIES AND CONJUGATES” (Tallac Therapeutics, Inc., priority 2021, published 2024):

Tests used:
dendritic cells = test: Dendritic cell activation (CD40) in human PBMCs; type: cell-based; conditions: 24 hours
Protocol: Trima residuals were received from Vitalant and diluted 1:3 with Phosphate Buffered Saline (PBS, Gibco). Diluted blood was underplayed with 15 mL Ficoll-Paque (GE Healthcare). Tubes were centrifuged for 30 minutes at 400×g with break off. PBMCs were collected from the interface, resuspended and washed in FACS buffer (PBS with 0.5% Bovine Serum Albumin (Gibco)). After one wash, PBMCs were resuspended in Complete RPMI (RPMI, 10% FBS, 1× Pen/Strep, 1× Glutamax). PBMCs were immediately plated onto a 96-well format (1e6/well) in Complete RPMI. Three-fold serial dilutions were added to the cells from 300 nM to 0.4 nM for anti-SIRP-α antibody (heavy chain comprising the sequence of SEQ ID NO:66 and light chain comprising the sequence of SEQ ID NO:75) and anti-SIRP-α conjugate (heavy chain comprising the sequence of SEQ ID NO:66 and a light chain comprising the sequence of SEQ ID NO:75, conjugated to CpG oligo 7-7 (SEQ ID NO:35)). Free CpG 7-7 (SEQ ID NO:35) was titrated from 3 μM to 4.12 nM. Cells were incubated at 37° C. under 5% CO2 for 24 hours. […] Cells were analyzed on Attune NxT Flow Cytometer (Thermo Fisher), with subsequent data analysis by Flowjo 10.7 (Treestar). […] Levels of activation marker were assessed by median fluorescent intensity.

CD14+ monocytes = test: Monocyte activation (CD40) in PBMCs co-cultured with DLD-1 tumor cell lines; type: cell-based, human; conditions: co-culture with DLD-1 overexpressing SIRP-α and with parental DLD-1; 300 nM to 0.41 nM, 48 hours; compared to other conjugates and unconjugated antibodies
Excerpt: Experiments using anti-SIRP-α antibody-CpG oligonucleotide conjugate used the 7-7 CpG oligo (SEQ ID NO:35) conjugated to anti-SIRP-α antibody comprising: (a) the heavy chain sequence of SEQ ID NO:68 and the light chain sequence of SEQ ID NO:75 (for anti-hIgG1), (b) the heavy chain sequence of SEQ ID NO:66 and the light chain sequence of SEQ ID NO: 75 (for anti-hIgG4), or (c) the heavy chain sequence of SEQ ID NO:67 and the light chain sequence of SEQ ID NO:75 (for anti-hIgG1 AAA). Trima residuals were received from Vitalant and diluted 1:2 with Phosphate Buffered Saline (PBS, Gibco). Diluted blood was split into two tubes and underplayed with 15 mL Ficoll-Paque (GE Healthcare). Tubes were centrifuged for 30 minutes at 400×g. PBMCs were collected from the interface, resuspended and washed in FACS buffer (PBS with 0.5% Bovine Serum Albumin (Gibco)). After one wash, PBMCs were resuspended in Complete RPMI (RPMI+10% FBS). PBMCs were immediately plated onto a 96-well format (0.5e6/well) in Complete RPMI. Tumor cells (0.025E6/well) from DLD-1 parental CFSE labeled, or DLD-1 transduced to overexpress SIRP-α+ and GFP were added to PBMC at 20:1 (effector to target). […] Cells were analyzed on Attune NxT Flow Cytometer (Thermo Fisher), with subsequent data analysis by Flowjo 10.7 (Treestar). […] CD14^+ monocyte activation levels of activation marker were assessed by median fluorescent intensity.

[1] = test system: THP-1-Dual hTLR9 cell line, interferon regulatory factor (IRF) pathway; test: THP-1-Dual hTLR9 reporter assay, IRF pathway (secreted Lucia luciferase); type: cell-based, human; conditions: 200 nM-1.56 nM, 24 hours
Protocol: THP-1-Dual hTLR9 cell line (thpd-nfis, Invivogen) was derived from human THP-1 monocytes engineered to overexpress the human TLR9 (hTLR9) gene and featuring two reporter genes allowing for simultaneous assessment of the NF-kB pathway by monitoring the activity of an inducible secreted embryonic alkaline phosphatase (SEAP), and the interferon regulatory factor (IRF) pathway by monitoring the activity of an inducible secreted Lucia luciferase. Briefly, 250,000 cells in 100 uL of growth media (RPMI 1640 (Gibco), 2 mM L-glutamine (Gibco), 25 mM HEPES (Gibco), 10% FBS (Gibco), 100 U/mL penicillin (Gibco), 100 ug/mL streptomycin (Gibco), 100 ug/mL Normacin (Invivogen) were plated in 96-well flat-bottom plates (Nunc). An 8 step 2-fold serial dilution of anti-SIRP-α antibody or anti-SIRP-α antibody conjugate was added to cells in 50 μL for a final concentration range of 200 nM-1.56 nM. 10 μg/mL of a F(ab′)2 fragment goat anti-human, IgG Fcγ fragment specific (Jackson Immuno Research) was added in 50 μL of growth media as a cross-linking agent. Cells were incubated at 37 C for 24 hours. NF-kB and IRF induction from supernatant was detected according to manufacturer's protocol. EC50 values were derived using three-parameter […] regression curve fir in Prism 9 (GraphPad), and data were presented as fold-over media control. […]

| Molecule | surface marker expression (CD40) on dendritic cells (dendritic cells) | induction of CD40 in monocytes (CD14+ monocytes) | IRF induction [1] |
| --- | --- | --- | --- |
| hIgG4 conjugate: anti-SIRP-α antibody, heavy chain SEQ ID NO:66 and light chain SEQ ID NO:75, conjugated to 7-7 CpG oligo (SEQ ID NO:35); Examples 13, 15 (conjugate, antibody conjugated to CpG oligonucleotide; modified_base 1 OTHER; 5-Bromo-2'-deoxyuridine; modified_base 13..14 OTHER; 2'-O-Methyl-Thymidine; modified_base 1..4 OTHER; phosphorothioate linkages; misc_feature 4^5 phosphotriester linker-PEG24-NH2; modified_base 5..9 OTHER; modified_base 9^10 OTHER; phosphorodithioate linkage; modified_base 10..14 OTHER; misc_feature 14 3' spacer C3) heavy: EVQLVESGGGVVQPGGSLRLSCAASGFTFSSNAMSWVRQAPGKGLEWVAGISAGGSDTYYPASVKGRFTISRDNSKNTLYLQMNSLRAEDTAVYYCARETWNHLFDYWGQGTLVTVSSASTKGPSVFPLAPCSRSTSESTAALGCLVKDYFPEPVTVSWNSGALTSGVHTFPAVLQSSGLYSLSSVVTVPSSSLGTKTYTCNVDHKPSNTKVDKRV[here human IgG4 Fc with S228P (EU numbers) without letters]RPQGFGPP light: SYELTQPPSVSVSPGQTARITCSGGSYSSYYYAWYQQKPGQAPVTLIYSDDKRPSNIPERFSGSSSGTTVTLTISGVQAEDEADYYCGGYDQSSYTNPFGGGTQLTVLGQPKANPTVTLFPPSSEELQANKATLVCLISDFYPGAVTVAWKADGSPVKAGVETTKPSKQSSDKYAASSYLSLTPEQWKSHRSYSCQVTHEGSTVEKTVAPTECS DNA: TCGTCGTGTCGTTT | significantly increased activation | strongest induction of CD40 | – |
| Unconjugated anti-SIRP-α antibody: anti-SIRP-α antibody with heavy chain SEQ ID NO:66 and light chain SEQ ID NO:73 (antibody) heavy: EVQLVESGGGVVQPGGSLRLSCAASGFTFSSNAMSWVRQAPGKGLEWVAGISAGGSDTYYPASVKGRFTISRDNSKNTLYLQMNSLRAEDTAVYYCARETWNHLFDYWGQGTLVTVSSASTKGPSVFPLAPCSRSTSESTAALGCLVKDYFPEPVTVSWNSGALTSGVHTFPAVLQSSGLYSLSSVVTVPSSSLGTKTYTCNVDHKPSNTKVDKRV[here human IgG4 Fc with S228P (EU numbers) without letters]RPQGFGPP light: SYELTQPPSVSVSPGQTARITCSGGSYSSYYYAWYQQKPGQAPVTLIYSDDKRPSNIPERFSGSSSGTTVTLTISGVQAEDEADYYCGGYDQSSYTNPFGGGTKLTVLGQPKANPTVTLFPPSSEELQANKATLVCLISDFYPGAVTVAWKADGSPVKAGVETTKPSKQSNNKYAASSYLSLTPEQWKSHRSYSCQVTHEGSTVEKTVAPTECS | – | – | did not elicit a response |
